PubChem BioAssay AID894 (National Center for Advancing Translational Sciences (NCATS), 2007)
The whole screen tested about 150,000 compounds, of which about 6,500 (4.3%) were called active. The inconclusive results got no clear call from the source; some entries with a clear call stand among them for comparison. The call rests on the fitted dose curve; in most records, active means well fitted inhibition curve with a large enough effect (not every such curve was filed as active); inconclusive means small, poorly fitted or top-dose-only effect, or another doubt; inactive means no such curve, though single readings can be large or run the other way. Potencies of inconclusive entries are left out as doubtful fits.

target: 15-hydroxyprostaglandin dehydrogenase [NAD(+)] (Homo sapiens) (UniProt P15428); experiment: qHTS Assay for Inhibitors of HPGD (15-Hydroxyprostaglandin Dehydrogenase); details: purified HPGD, NADH fluorescence kinetic, PGE2 substrate; activity change, negative = inhibition: stronger effect = lower value
In short: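 NADH formation kinetics: reaction with 30 uM PGE2 and 1 mM NAD+ (final), 20 nM enzyme, Tris-HCl pH 8 with Tween 20, after 15 min compound preincubation at room temperature. Fluorescence change, last versus first of five reads.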
On the % scale 0 is the no-effect control and ±100 the full control effect; potency means the concentration at half of the fitted maximal effect; tags describe the fitted curve by direction and shape.

UniProt P15428, sequence (P15428 whole entry, looked up): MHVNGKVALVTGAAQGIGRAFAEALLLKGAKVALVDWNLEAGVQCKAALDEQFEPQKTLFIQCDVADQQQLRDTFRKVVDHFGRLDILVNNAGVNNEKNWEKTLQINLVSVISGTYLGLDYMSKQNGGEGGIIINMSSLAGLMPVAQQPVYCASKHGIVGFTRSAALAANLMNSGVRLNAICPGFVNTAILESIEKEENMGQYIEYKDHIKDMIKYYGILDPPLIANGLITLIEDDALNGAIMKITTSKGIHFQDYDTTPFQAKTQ

| SMILES | activity change, negative = inhibition | Potency |
| --- | --- | --- |
| COc1cc(C(=O)Oc2ccc3c(OC)c4ccoc4nc3c2OC)cc(OC)c1OC | inactive: -8.72% |  |
| CC(C)=CCC/C(C)=C\COc1c2ccoc2cc2oc(=O)ccc12 |  | inconclusive [inhibitor, partial curve] |
| COc1ccc(OC)c2[nH]c(=O)c(CCNC(=O)c3cc4ccccc4o3)cc12 |  | inconclusive [inhibitor, partial curve] |
| Cc1nn(-c2ccccc2)c(C)c1/C=N/n1c(-c2ccc(Cl)cc2)n[nH]c1=S |  | inconclusive [inhibitor, full curve] |
| COc1ccc(-c2oc3ccccc3c(=O)c2O)cc1OC |  | inconclusive [inhibitor, partial curve] |
| CCN(CC)C(=O)CSc1nc(-c2cccs2)cc(-c2cccs2)c1C#N |  | inconclusive [inhibitor, partial curve] |
| COc1ccc2[nH]cc(CCNc3ncncc3-c3ccc(N(C)C)cc3)c2c1 |  | inconclusive [inhibitor, partial curve] |
| COc1cccc(NC(=O)C(=O)N/N=C/c2cc(C)n(-c3ccc(Cl)c(Cl)c3)c2C)c1 |  | inconclusive [inhibitor, partial curve] |
| COc1cc(N=C(N)N=C(N)N)c2ncccc2c1 | inactive: -9.18% |  |
| Cc1cc(N2CCC(C(=O)NC3CC3)CC2)nc(-c2ccccc2)n1 |  | inconclusive [inhibitor, single point] |
| Cc1cc2nnc(SC(C)C)n2c2ccccc12 |  | inconclusive [inhibitor, partial curve] |
| COC(=O)c1c(NC(=O)c2nn(C)cc2Cl)sc2c1CCCC2 |  | inconclusive [inhibitor, partial curve] |
| CCOC(=O)Nc1cc2c(C)cc(=O)oc2cc1C |  | inconclusive [inhibitor, partial curve] |
| Cc1[nH]n(-c2ccc(F)cc2)c(=O)c1/C=N/c1sc2c(c1C#N)CCCC2 | inactive: -17.2% |  |
| COc1cccc(-c2nnc3sc(-c4ccccn4)nn23)c1 |  | active: 22.4 µM |
| COc1cc(C(C#N)N2CCCCC2)ccc1O (stereo not drawn) | inactive: -14.2% |  |
| COc1ccc(/C(N)=N/OC(=O)Cc2ccc(C)cc2)cc1OC | inactive: -2.23% |  |
| CS(=O)(=O)N(Cc1ccccc1)c1ccc(C(=O)Nc2ccccc2Sc2ccccc2)cc1 |  | inconclusive [inhibitor, single point] |
| CCOC(=O)c1c(NC(=O)c2noc3c2CCCC3)sc(C)c1C |  | inconclusive [inhibitor, partial curve] |
| COc1cc(/C=N/NC(N)=S)ccc1OCC(=O)Nc1ccc(C)cc1 | inactive: -8.36% |  |
| Nc1c2ccccc2nc2ccccc12 (tested in a mixture with another compound) |  | inconclusive [inhibitor, partial curve] |
| Cc1ccc(Oc2ccc(-c3nc(N)nc(N)n3)cc2)cc1C |  | inconclusive [inhibitor, partial curve] |
| COc1ccc(N2C(=O)c3ccccc3NC2c2ccc(OC)c(CSc3ccccn3)c2)cc1 (stereo not drawn) |  | inconclusive [inhibitor, partial curve] |

| SMILES | activity change, negative = inhibition | Potency |
| --- | --- | --- |
| CC(=O)COc1cc(C)cc2oc(=O)c(C)c(C)c12 |  | inconclusive [inhibitor, partial curve] |
| O=C(CCSc1ccc(Cl)cc1)NC12CC3CC(CC(C3)C1)C2 |  | inconclusive [inhibitor, single point] |
| CC(C)c1ccc(S(=O)(=O)/N=C2/C=C(Sc3ncn[nH]3)C(=O)c3ccccc32)cc1 |  | active: 1.41 µM |
| COCCCNC(=O)C1CCN(C(=O)Nc2ccc(Cl)cc2)CC1 | inactive: -6.74% |  |
| Nc1c(C(=O)c2ccc(Br)s2)oc2ccccc12 | inactive: -23% |  |
| COc1ccccc1NC(=O)c1nnn(CC(=O)Nc2ccccc2)c1N |  | inconclusive [inhibitor, partial curve] |
| COc1ccc(C(CC(=O)O)NC(=O)c2cccs2)cc1 (stereo not drawn) | inactive: -3.3% |  |
| Cc1nn(-c2ccccn2)c2c1-c1nc(N)ncc1CC2 |  | inconclusive [inhibitor, partial curve] |
| Cc1nn(C)cc1/C=N/NC(=S)Nc1ccccc1 |  | active: 28.2 µM |
| CCOP(=O)(OCC)c1nc(/C=C/c2ccccc2)oc1NCc1ccc(OC)cc1 |  | inconclusive [inhibitor, partial curve] |
| Cc1ccc(Oc2ccc(NC(=O)c3ccco3)cc2)cc1 |  | inconclusive [inhibitor, partial curve] |
| c1ccc(CN2CCN(c3nc4ccccc4c4ccccc34)CC2)cc1 |  | inconclusive [inhibitor, partial curve] |
| CCN(CCCCN1C(=O)c2ccccc2C1=O)c1ccc2c(c1)C(=O)N(C)C2=O |  | active: 10 µM |
| O=C(N/N=C\c1cn(-c2ccccc2)nc1-c1ccccc1)c1ccc(Br)o1 |  | inconclusive [inhibitor, partial curve] |
| CCSc1nc2sc3c(c2c(=O)[nH]1)CCCC3 | inactive: -15% |  |
| N#Cc1ccc(CN2CCC3(CCNCC3)CC2)cc1 | inactive: -2.73% |  |
| COc1ccc(-c2[nH]c(-c3cc(OC)c4c(c3)OCO4)nc2-c2ccccc2)cc1 |  | inconclusive [inhibitor, partial curve] |
| Cc1ccccc1CSc1nnc(C)c(=O)[nH]1 |  | inconclusive [inhibitor, partial curve] |
| O=C(Nc1ccc(N2CCN(C(=O)c3ccco3)CC2)c(Cl)c1)c1cc2ccccc2o1 |  | inconclusive [inhibitor, single point] |
| N#Cc1c(NC(=O)Cn2cnc3ccccc3c2=O)oc(-c2ccccc2)c1-c1ccccc1 |  | inconclusive [inhibitor, single point] |
| O=C1NCC(CN(c2ccccc2)c2ccccc2)O1 (stereo not drawn) |  | inconclusive [inhibitor, partial curve, poor fit] |
| COc1ccc(-c2noc(CSc3nc(N)c(-c4ccccc4)c(=O)[nH]3)n2)cc1OC |  | active: 15.8 µM |
| C=CCNc1nnc(-c2ccncc2)s1 |  | inconclusive [inhibitor, partial curve] |

| SMILES | activity change, negative = inhibition | Potency |
| --- | --- | --- |
| CC(C)C(OC(=O)c1nsc(Cl)c1Cl)C(=O)NCc1ccc2c(c1)OCO2 (stereo not drawn) |  | active: 2.24 µM |
| CCN(C(=O)COC(=O)c1cc(-c2ccc3cc(OC)ccc3c2)nc2ccccc12)C1CCS(=O)(=O)C1 (stereo not drawn) |  | inconclusive [inhibitor, partial curve] |
| COc1ccc(N2C(=O)C3C4C=CC(CC4)C3C2=O)c([N+](=O)[O-])c1 (stereo not drawn) | inactive: -19.7% |  |
| COC(=O)c1ccc2[nH]c(C)c(CN3CCCC3)c(=O)c2c1 |  | inconclusive [inhibitor, partial curve] |
| CCC(=O)Nc1nonc1-c1nc2ccccc2n1Cc1cccc2ccccc12 |  | inconclusive [inhibitor, single point] |
| COc1ccc2c(C)cc(N3CCN(c4ccc(F)cc4)CC3)nc2c1 |  | inconclusive [inhibitor, partial curve] |
| CCCCCCC1C(C#N)=C(N)OC2=C1C(=O)CCC2 (stereo not drawn) |  | inconclusive [inhibitor, partial curve] |
| Clc1ccc(OCCN2CCN(c3ncnc4sccc34)CC2)cc1 |  | inconclusive [inhibitor, single point] |
| CCN(CC)CC[n+]1ccc2c(C)c3[nH]c4ccc(O)cc4c3c(C)c2c1 |  | inconclusive [inhibitor, single point] |
| O=C(NC1CCCCCC1)c1c(O)c2ccccc2[nH]c1=O | inactive: -12.1% |  |
| COc1ccc(CC(=O)Nc2cccc(-c3nnc(-c4cccc(C)c4)o3)c2)cc1OC |  | inconclusive [inhibitor, single point] |
| CCOCc1cc(C)[nH]c(=O)c1C#N |  | inconclusive [inhibitor, partial curve] |
| COc1ccc(-c2nn(-c3ccccc3)cc2/C=N/NC(=O)c2cccc(S(=O)(=O)Nc3ccccc3Cl)c2)cc1 |  | inconclusive [inhibitor, single point] |
| Cc1cc(=O)oc2cc(OCC(=O)OCC(=O)N3CCc4ccccc43)ccc12 |  | inconclusive [inhibitor, partial curve] |
| CCc1ccc2c(c1)C1(NN=C(c3ccc(C)cc3)S1)C(=O)N2 (stereo not drawn) |  | inconclusive [inhibitor, partial curve] |
| CCc1cc2c(=O)c(-c3nc4ccccc4n3C)c(C)oc2c(CN2CCN(C)CC2)c1O |  | inconclusive [inhibitor, single point] |
| COc1ccc(-n2c(C)cc(/C=C3/SC(=S)N(C)C3=O)c2C)cc1 | inactive: -9.55% |  |
| CCSc1nnc(NC(=O)c2ccc(Br)s2)s1 |  | inconclusive [inhibitor, partial curve] |
| O=C1CCCc2c1[nH]c1ccc(CN3CCCCC3)cc21 |  | inconclusive [inhibitor, partial curve] |
| CCc1c(C)sc(NC(=O)c2cc(C3CC3)on2)c1C#N | inactive: -20.6% |  |
| COc1ccc(Cl)cc1-c1nc(SCC(=O)NCCN2C(=O)CSC2=O)n[nH]1 | inactive: -13% |  |
| CC(C)(C)NC(=O)COC(=O)CNC(=O)c1cc(Cl)cc([N+](=O)[O-])c1 | inactive: -5.25% |  |
